This note sets out measurements from publication PMC9911399, “Two distinct binding modes provide the RNA-binding protein RbFox with extraordinary sequence specificity”.

Numbering of substitutions follows the chain as printed; changes in the protein carry UniProt numbers. The list shows a part of the results.

The labels stand for the following.
T1: RBFOX1 RRM (Homo sapiens, UniProt Q9NWB1 109-208)
T1 sequence: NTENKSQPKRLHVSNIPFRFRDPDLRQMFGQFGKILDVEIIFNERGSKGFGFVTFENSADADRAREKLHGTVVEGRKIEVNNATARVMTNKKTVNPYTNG

B1: AUUAGUA (DNA:RNA)
RNA: GGGAGACCGGAAUUCAGAUUGUCCAUUAGUAUUAAAUCCCGUCGUAGCCACCA
DNA 1: CAATCTGAATTCCGGTCTCCC
DNA 2: TGGTGGCTACGACGGGATT
B2: AAAAUGU (DNA:RNA)
RNA: B1 RNA with U26A, U27A, G29U, U30G, A31U
DNA 1: CAATCTGAATTCCGGTCTCCC
DNA 2: TGGTGGCTACGACGGGATT
B3: CAGAGGA (DNA:RNA)
RNA: B1 RNA with A25C, U26A, U27G, U30G
DNA 1: CAATCTGAATTCCGGTCTCCC
DNA 2: TGGTGGCTACGACGGGATT
B4: UAGUGUU (DNA:RNA)
RNA: B1 RNA with A25U, U26A, U27G, A28U, A31U
DNA 1: CAATCTGAATTCCGGTCTCCC
DNA 2: TGGTGGCTACGACGGGATT
B5: GUUGUGU (DNA:RNA)
RNA: B1 RNA with A25G, A28G, G29U, U30G, A31U
DNA 1: CAATCTGAATTCCGGTCTCCC
DNA 2: TGGTGGCTACGACGGGATT
B6: ACGACGA (DNA:RNA)
RNA: B1 RNA with U26C, U27G, G29C, U30G
DNA 1: CAATCTGAATTCCGGTCTCCC
DNA 2: TGGTGGCTACGACGGGATT
B7: GCUGUCA (DNA:RNA)
RNA: B1 RNA with A25G, U26C, A28G, G29U, U30C
DNA 1: CAATCTGAATTCCGGTCTCCC
DNA 2: TGGTGGCTACGACGGGATT
B8: GCAUAAU (DNA:RNA)
RNA: GGGAGACCGGAAUUCAGAUUGUCCGCAUAAUUUAAAUCCCGUCGUAGCCACCA
DNA 1: CAATCTGAATTCCGGTCTCCC
DNA 2: TGGTGGCTACGACGGGATT
B9: ACUAGCU (DNA:RNA)
RNA: B1 RNA with U26C, U30C, A31U
DNA 1: CAATCTGAATTCCGGTCTCCC
DNA 2: TGGTGGCTACGACGGGATT
B10: GGUUACU (DNA:RNA)
RNA: B8 RNA with C26G, A27U, A30C
DNA 1: CAATCTGAATTCCGGTCTCCC
DNA 2: TGGTGGCTACGACGGGATT
B11: UUGCAUG (DNA:RNA)
RNA: B1 RNA with A25U, U27G, A28C, G29A, A31G
DNA 1: CAATCTGAATTCCGGTCTCCC
DNA 2: TGGTGGCTACGACGGGATT
B12: UCGUAGA (DNA:RNA)
RNA: B8 RNA with G25U, A27G, A30G, U31A
DNA 1: CAATCTGAATTCCGGTCTCCC
DNA 2: TGGTGGCTACGACGGGATT
B13: CCCGCGC (DNA:RNA)
RNA: B8 RNA with G25C, A27C, U28G, A29C, A30G, U31C
DNA 1: CAATCTGAATTCCGGTCTCCC
DNA 2: TGGTGGCTACGACGGGATT
B14: AGCGGCC (DNA:RNA)
RNA: B1 RNA with U26G, U27C, A28G, U30C, A31C
DNA 1: CAATCTGAATTCCGGTCTCCC
DNA 2: TGGTGGCTACGACGGGATT
B15: GACUCGG (DNA:RNA)
RNA: B8 RNA with C26A, A27C, A29C, A30G, U31G
DNA 1: CAATCTGAATTCCGGTCTCCC
DNA 2: TGGTGGCTACGACGGGATT
B16: GAACACC (DNA:RNA)
RNA: B8 RNA with C26A, U28C, A30C, U31C
DNA 1: CAATCTGAATTCCGGTCTCCC
DNA 2: TGGTGGCTACGACGGGATT
B17: CGCCUUG (DNA:RNA)
RNA: B1 RNA with A25C, U26G, U27C, A28C, G29U, A31G
DNA 1: CAATCTGAATTCCGGTCTCCC
DNA 2: TGGTGGCTACGACGGGATT
B18: ACACAUA (DNA:RNA)
RNA: B1 RNA with U26C, U27A, A28C, G29A
DNA 1: CAATCTGAATTCCGGTCTCCC
DNA 2: TGGTGGCTACGACGGGATT
B19: GUUAGUC (DNA:RNA)
RNA: B1 RNA with A25G, A31C
DNA 1: CAATCTGAATTCCGGTCTCCC
DNA 2: TGGTGGCTACGACGGGATT
B20: CAUCCGG (DNA:RNA)
RNA: B1 RNA with A25C, U26A, A28C, G29C, U30G, A31G
DNA 1: CAATCTGAATTCCGGTCTCCC
DNA 2: TGGTGGCTACGACGGGATT
B21: GAAAUAG (DNA:RNA)
RNA: B8 RNA with C26A, U28A, A29U, U31G
DNA 1: CAATCTGAATTCCGGTCTCCC
DNA 2: TGGTGGCTACGACGGGATT
B22: GAGCGUC (DNA:RNA)
RNA: B1 RNA with A25G, U26A, U27G, A28C, A31C
DNA 1: CAATCTGAATTCCGGTCTCCC
DNA 2: TGGTGGCTACGACGGGATT
B23: CAUAUGC (DNA:RNA)
RNA: B1 RNA with A25C, U26A, G29U, U30G, A31C
DNA 1: CAATCTGAATTCCGGTCTCCC
DNA 2: TGGTGGCTACGACGGGATT
B24: AUUUUCG (DNA:RNA)
RNA: B1 RNA with A28U, G29U, U30C, A31G
DNA 1: CAATCTGAATTCCGGTCTCCC
DNA 2: TGGTGGCTACGACGGGATT
B25: UGGAUAC (DNA:RNA)
RNA: B1 RNA with A25U, U26G, U27G, G29U, U30A, A31C
DNA 1: CAATCTGAATTCCGGTCTCCC
DNA 2: TGGTGGCTACGACGGGATT
B26: UCGUCGA (DNA:RNA)
RNA: B8 RNA with G25U, A27G, A29C, A30G, U31A
DNA 1: CAATCTGAATTCCGGTCTCCC
DNA 2: TGGTGGCTACGACGGGATT
B27: ACCAGUC (DNA:RNA)
RNA: B1 RNA with U26C, U27C, A31C
DNA 1: CAATCTGAATTCCGGTCTCCC
DNA 2: TGGTGGCTACGACGGGATT
B28: AUUGCUA (DNA:RNA)
RNA: B1 RNA with A28G, G29C
DNA 1: CAATCTGAATTCCGGTCTCCC
DNA 2: TGGTGGCTACGACGGGATT
B29: UUUUUGC (DNA:RNA)
RNA: B1 RNA with A25U, A28U, G29U, U30G, A31C
DNA 1: CAATCTGAATTCCGGTCTCCC
DNA 2: TGGTGGCTACGACGGGATT
B30: AGCCCAA (DNA:RNA)
RNA: B1 RNA with U26G, U27C, A28C, G29C, U30A
DNA 1: CAATCTGAATTCCGGTCTCCC
DNA 2: TGGTGGCTACGACGGGATT
B31: UGGAUAU (DNA:RNA)
RNA: B8 RNA with G25U, C26G, A27G, U28A, A29U
DNA 1: CAATCTGAATTCCGGTCTCCC
DNA 2: TGGTGGCTACGACGGGATT

This test addresses T1, RBFOX1 RRM. Put plainly: EMSA; HiTS-Eq, 1 nM pool, 10 min; buffer printed only for the single-RNA assays: 10 mM Tris pH 7.5, 150 mM NaCl, 3.4 mM EDTA, 0.001% NP-40, 30 C. The following applies: tags: His6 N-terminal (pET28a); label: 5' 32P. In short, it runs like this:
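These values rest on relative association constants, computed from read-count changes of each RNA species versus the control reaction and normalised to the cognate motif. Reads came from free RNA recovered by 8% native PAGE after purified RbFox RRM (wild type or mutant) at increasing concentrations was equilibrated for 10 min in 50 µL with 1 nM of a 5′-radiolabelled pool with 7 randomized nucleotides and DNA-annealed flanks.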
For B1, the binding signal was 0.00672 KA relative to UGCAUGU.
The value for B2 was 0.00225 KA relative to UGCAUGU; that for B3 was 0.00799 KA relative to UGCAUGU; that for B4 was 0.0155 KA relative to UGCAUGU.
As for B5, the figure is 0.0226 KA relative to UGCAUGU; as for B6, 0.00391 KA relative to UGCAUGU; as for B7, 0.0121 KA relative to UGCAUGU.
The value for B8 was 0.00163 KA relative to UGCAUGU; that for B9 was 0.00211 KA relative to UGCAUGU.
For the molecule B10, the binding signal was 0.0106 KA relative to UGCAUGU.
As for B11, the figure is 1 KA relative to UGCAUGU.
As for B12, the figure is 0.0142 KA relative to UGCAUGU.
As for B13, the figure is 0.0137 KA relative to UGCAUGU; as for B14, 0.0153 KA relative to UGCAUGU.
Take B15: the binding signal was 0.0114 KA relative to UGCAUGU.
With B16, the binding signal was 0.00172 KA relative to UGCAUGU.
The value for B17 was 0.0242 KA relative to UGCAUGU.
The value for B18 was 0.00211 KA relative to UGCAUGU.
As for B19, the figure is 0.0119 KA relative to UGCAUGU; as for B20, 0.000667 KA relative to UGCAUGU.
Take B21: the binding signal is 0.00818 KA relative to UGCAUGU.
As for B22, the figure is 0.0142 KA relative to UGCAUGU; as for B23, 0.0071 KA relative to UGCAUGU.
As for B24, the figure is 0.016 KA relative to UGCAUGU; as for B25, 0.0222 KA relative to UGCAUGU; as for B26, 0.014 KA relative to UGCAUGU.
The value for B27 was 0.00462 KA relative to UGCAUGU; that for B28 was 0.01 KA relative to UGCAUGU.
Consider B29, for which the binding signal was 0.0305 KA relative to UGCAUGU.
As for B30, the figure is 0.00242 KA relative to UGCAUGU; as for B31, 0.0194 KA relative to UGCAUGU.
